Laboratory results: the antibiotic and cytotoxicity screens of Wong et al. (2023)
The other results are listed elsewhere or left out.

How the values were obtained:
HSkMC = human skeletal muscle cells; assay: cytotoxicity call (relative viability < 0.9); conditions: 10 µM
HepG2 = assay: cytotoxicity call (relative viability < 0.9); conditions: 10 µM
S. aureus RN4220 = assay: growth inhibition call (relative growth <= 0.2); conditions: 50 µM

Cc1ccc(NC(=O)c2cc(=O)[nH]c(=O)[nH]2)cc1
inactive: cytotoxicity call (HSkMC) | cytotoxicity call (HepG2) | growth inhibition call (S. aureus RN4220)

COc1cccc(S(=O)(=O)N(C)C[C@@H]2Oc3cc(C4=CCCC4)ccc3S(=O)(=O)N([C@@H](C)CO)C[C@@H]2C)c1
inactive: cytotoxicity call (HSkMC) | cytotoxicity call (HepG2) | growth inhibition call (S. aureus RN4220)

C[C@@H]1CCCCO[C@H](CN(C)Cc2ccc(C(F)(F)F)cc2)[C@H](C)CN([C@H](C)CO)C(=O)c2cc(NC(=O)c3ccncc3)ccc2O1
inactive: cytotoxicity call (HSkMC) | cytotoxicity call (HepG2) | growth inhibition call (S. aureus RN4220)

CCS(=O)(=O)N1CC[C@]2(CC1)CN(CC1CCOCC1)[C@@H](CO)c1c2c2ccc(cc2n1C)OC
inactive: cytotoxicity call (HSkMC) | cytotoxicity call (HepG2) | growth inhibition call (S. aureus RN4220)

C[C@@H]1CN([C@H](C)CO)C(=O)c2cccc(NS(=O)(=O)c3ccc(F)cc3)c2O[C@@H]1CN(C)Cc1ccc(-c2ccccc2)cc1
inactive: cytotoxicity call (HSkMC) | cytotoxicity call (HepG2) | growth inhibition call (S. aureus RN4220)

O=C(c1ccncc1)N1C[C@H]2[C@@H](c3ccccc31)[C@H](CO)N2C(=O)CN1CCOCC1
inactive: cytotoxicity call (HSkMC) | cytotoxicity call (HepG2) | growth inhibition call (S. aureus RN4220)

COc1ccc(NC(=O)N(C)C[C@H]2Oc3ccc(NC(=O)C4CC4)cc3C(=O)N([C@@H](C)CO)C[C@@H]2C)cc1
inactive: cytotoxicity call (HSkMC) | cytotoxicity call (HepG2) | growth inhibition call (S. aureus RN4220)

C[C@@H]1CN([C@@H](C)CO)C(=O)c2ccccc2-c2ccccc2CO[C@H]1CN(C)C(=O)Nc1ccc(F)cc1
inactive: cytotoxicity call (HSkMC) | cytotoxicity call (HepG2) | growth inhibition call (S. aureus RN4220)

Cc1ccc(S(=O)(=O)Nc2ccc3c(c2)C(=O)N([C@@H](C)CO)C[C@@H](C)[C@H](CN(C)Cc2ccccc2)OCCCC[C@H](C)O3)cc1
inactive: cytotoxicity call (HSkMC) | cytotoxicity call (HepG2) | growth inhibition call (S. aureus RN4220)

CO[C@H]1CN(C)C(=O)c2ccc(NS(=O)(=O)CC(F)(F)F)cc2OC[C@@H](C)N(C(=O)NC(C)C)C[C@H]1C
inactive: cytotoxicity call (HSkMC) | cytotoxicity call (HepG2) | growth inhibition call (S. aureus RN4220)

COc1ccc2c3c(n(c2c1)C)[C@@H](CO)N(C[C@]13CN(C1)C(=O)c1ccncc1)C(=O)C1CCCCC1
inactive: cytotoxicity call (HSkMC) | cytotoxicity call (HepG2) | growth inhibition call (S. aureus RN4220)

C[C@H](CO)N1C[C@H](C)[C@@H](CN(C)S(=O)(=O)c2ccccc2)Oc2ccc(NS(=O)(=O)c3ccccc3)cc2CC1=O
inactive: cytotoxicity call (HSkMC) | cytotoxicity call (HepG2) | growth inhibition call (S. aureus RN4220)

C[C@@H]1CN([C@H](C)CO)C(=O)c2cc(-c3cccc(C#N)c3)cnc2O[C@H]1CN(C)C(=O)c1cnccn1
inactive: cytotoxicity call (HSkMC) | cytotoxicity call (HepG2) | growth inhibition call (S. aureus RN4220)

COc1ccc(NC(=O)Nc2ccc3c(c2)C(=O)N([C@H](C)CO)C[C@H](C)[C@@H](CN(C)CC2CCCCC2)O3)cc1
inactive: cytotoxicity call (HSkMC) | cytotoxicity call (HepG2) | growth inhibition call (S. aureus RN4220)
